The whole screen tested about 52,000 compounds, of which about 1,700 (3.3%) were called active. No stated cut-off is given here; in the data, active means survival mostly below about 52% (no sharp cut-off); inactive means mostly above about 56%. This is one part of the list.
These molecules were tested on Wild type (assay: growth inhibition of S. aureus wild type versus tarO mutant, primary screen, teichoic acid synthesis inhibitors, RN4220, OD600 (AID 463173)). Conditions: S. aureus RN4220 wild type/DeltatarO growth, OD600, 18 h, stronger effect = lower value, screened at 18.75 µg/mL (by protocol).
For `O=C(Cn1ncc2c(=O)oc3ccccc3c21)Nc1cc(F)ccc1F`, the survival was inactive: 76%. For `COC(=O)c1ccc(Cl)cc1NC(=O)N1CC=C(c2c[nH]c3ccccc23)CC1`, the survival was inactive: 76%. In the case of `Cc1cccc(OCCCC(=O)Nc2sc3c(c2C(N)=O)CCC(C)C3)c1` (stereo not drawn), the survival is reported as inactive: 88%. `CCN(CC)c1nc(-c2ccc(C(C)(C)C)cc2)nc2ccccc12` was tested, and the survival was active: -2%. `O=C(CSc1nc2nccnc2c(=O)n1CCc1c[nH]c2ccccc12)Nc1ccccc1F` was tested, and the survival was inactive: 63%. For `Oc1ccccc1Nc1nc(-c2ccccc2)c2cc(Cl)ccc2n1`, the survival was inactive: 103%. `COc1ccc(/C=C(\C#N)c2nc(-c3cc(Cl)ccc3OC)cs2)cc1` was tested, and the survival was inactive: 116%. With `O=C1CS(=O)(=O)C2(C(=O)N(Cc3cccc(F)c3)c3ccccc32)N1c1ccccc1` (stereo not drawn) the survival was inactive: 95%. In the case of `COc1ccc2c(CNCC(C)c3ccccc3)c(C(=O)O)n(Cc3ccc(F)cc3Cl)c2c1` (stereo not drawn), the survival is reported as inactive: 118%. For `COc1cc(OC)c(NC(=O)c2c(C)oc3ncn(C)c(=O)c23)cc1Cl`, the survival was inactive: 88%. `CCOc1ccc(CCNC(=O)CCc2c(C)nc3c(c(C)nn3-c3ccccc3)c2C)cc1OCC` was tested, and the survival was inactive: 80%. For `CCOc1ccc(NC(=O)c2ccc(NC(=O)CCS(=O)(=O)c3cccs3)cc2)cc1`, the survival was inactive: 95%. `Cc1ccc(C2CC(=O)N(Cc3ccccc3F)c3c2c(C)nn3-c2nc(C)cc(C)n2)cc1` (stereo not drawn) was tested, and the survival was inactive: 89%. For `Cc1ccc(Cc2nc3ccccc3nc2SCC(=O)N2CCc3ccccc32)cc1`, the survival was inactive: 66%. With `CCn1cc(C(=O)N2CCN(c3cccc(Cl)c3)CC2)c(=O)c2cc(S(=O)(=O)N3CCOCC3)ccc21` the survival was inactive: 82%. For `COc1ccc(NC(=O)Nc2nnc(N3CCCCCC3)s2)cc1`, the survival was inactive: 75%. For `CN(C)CCNC(=O)C1CCN(c2nc3ccccc3[nH]2)CC1`, the survival was inactive: 47%. For `Cc1c(NC(=O)c2cc([N+](=O)[O-])ccc2N2CCOCC2)cccc1-c1nc2ccccc2o1`, the survival was inactive: 69%. With `Cc1ccc(NC(=O)c2nc(S(C)(=O)=O)ncc2N(Cc2ccccc2)Cc2ccco2)c(C)c1` the survival was inactive: 78%. For `Cc1ccc(C(=O)Nc2c(-c3ccccc3)nc3ccccn23)cc1C`, the survival was inactive: 55%. For `Cc1nn(-c2ccc(F)cc2)c(-n2cccc2)c1C(=O)N1CCN(c2ccc(F)cc2)CC1`, the survival was inactive: 69%. With `COc1ccc(NC(=O)c2nnn(Cc3ccccc3C)c2N)c(OC)c1` the survival was inactive: 82%. In the case of `O=C(CSc1nc2ccccc2o1)NC1CC1`, the survival is reported as inactive: 86%. For `Cc1ccc(CNC(=O)Cn2c3ncccc3c(=O)n2-c2ccccc2)cc1`, the survival was inactive: 71%. For `O=C(CSc1ccc(-c2ccccn2)nn1)Nc1ccc(F)c(F)c1`, the survival was inactive: 71%. With `CC(=O)N1c2nc(C(C)C)nn2C2(CCCCC2)[C@@H]2CCCC[C@@H]21` the survival was inactive: 84%. `CC(C)CN(CCCNC(=O)c1cc(=O)[nH]c2ccc(S(=O)(=O)N3CCCCCC3)cc12)CC(C)C` was tested, and the survival was inactive: 68%. `CCNC(=O)c1cc2sccc2n1Cc1ccccc1` was tested, and the survival was inactive: 109%. In the case of `CCOc1cc(S(=O)(=O)NCc2ccc(OC)cc2)c(OCC)cc1-n1cnnn1`, the survival is reported as inactive: 107%. For `CCOc1ccc2oc(=O)cc(CN3CCN(c4cc(C)ccc4C)CC3)c2c1`, the survival was inactive: 73%. With `CC(=O)Nc1cccc(NC(=O)CN2C(=O)CCSc3ccccc32)c1` the survival was inactive: 90%. With `O=C(Nc1ccc2oc(-c3ccc(O)c(Br)c3)nc2c1)c1cc2ccccc2o1` the survival was inactive: 72%. In the case of `Cc1cccc(N2CCN(C(=O)c3cccn4c(=O)c5cc(Cl)ccc5nc34)CC2C)c1` (stereo not drawn), the survival is reported as inactive: 65%. For `Cc1nc2nc(NC(=O)c3ccccc3F)[nH]n2c(=O)c1Cl`, the survival was inactive: 92%. `O=C(CSc1nnc(-c2cccc(Cl)c2)o1)N1CCc2ccccc21` was tested, and the survival was inactive: 79%. `COc1ccc(C2C=C(c3cccc(OC)c3)Nc3c(C(=O)Nc4ccccc4)cnn32)cc1` (stereo not drawn) was tested, and the survival was inactive: 65%. In the case of `CCn1c2c(c(=O)n3ncc(C(=O)Nc4cc(Cl)ccc4C)c13)CN(Cc1ccc(OC)cc1)CC2`, the survival is reported as inactive: 73%. With `Cc1ccn2c(Nc3ccc(C(C)C)cc3)c(-c3cccs3)nc2c1` the survival was inactive: 53%. In the case of `COc1cc(OC)c(NC(=O)C2=C(C)C(=O)OC23CCCCCC3)cc1Cl`, the survival is reported as inactive: 74%. In the case of `CCC1CN(C(=O)N2CCC(C(=O)N3CCN(c4cccc(C)c4C)CC3)CC2)c2ccccc2O1` (stereo not drawn), the survival is reported as inactive: 87%. In the case of `Cc1ccc(Cl)cc1NC(=O)CCC(=O)N1CC(C)Sc2ccccc21` (stereo not drawn), the survival is reported as inactive: 63%. For `COc1ccccc1-c1nnc(SCC(=O)Nc2ccccc2F)o1`, the survival was inactive: 83%. `O=C(NCCc1ccc(Cl)cc1)C1CCN(c2ncnc3c2nc2n3CCCCC2)CC1` was tested, and the survival was inactive: 80%. `CC(C)(C)Nc1nc(OCC#N)nc(N2CCOCC2)n1` was tested, and the survival was inactive: 130%. With `COc1ccc(CNC(=O)CN2C3CCCC2CC(=O)NC3)cc1` (stereo not drawn) the survival was inactive: 105%. With `Cc1ccc(-n2c(=O)c3c4c(sc3n(CC(=O)c3ccc(Cl)cc3)c2=O)CCC4)cc1C` the survival was inactive: 141%. `CN(Cc1ccco1)C(=O)c1ccc2c(c1)N(Cc1ccccc1F)C(=O)c1ccccc1S2` was tested, and the survival was inactive: 115%. For `CC(=O)N1c2ccc(S(=O)(=O)NCC3CCC(C(=O)Nc4ccc(C)cc4)CC3)cc2CC1C` (stereo not drawn), the survival was inactive: 97%. With `CCc1ccc(NC(=O)CN2CCCN(Cc3cccc(Cl)c3)S2(=O)=O)cc1` the survival was inactive: 73%. `COC(=O)c1cc2sc(C)cc2n1CC(=O)Nc1ccc(C)c(C)c1` was tested, and the survival was inactive: 69%. For `O=C(NC1CCCCC1)/C(=N\O)c1ccccn1`, the survival was inactive: 103%. `CCOc1ccc(NC(=O)c2cc(S(=O)(=O)N3CCCCCC3)cn2C)cc1` was tested, and the survival was inactive: 128%. `COc1ccc2c(c1)c1c(c(=O)n(-c3ccc(F)c(Cl)c3)c(=O)n1CC(=O)N1CCCC1)n2C` was tested, and the survival was inactive: 69%. `Cc1c2cnn(-c3ccccc3)c(=O)c2c(C)n1CC(=O)NCCc1ccc(Cl)cc1` was tested, and the survival was inactive: 99%. In the case of `CCOC(=O)c1ccc(N2C(=O)CC(NC(C)(C)C)C2=O)cc1` (stereo not drawn), the survival is reported as inactive: 103%. `Cc1ccc(C2=C(CC(=O)O)C(=O)CC2)cc1` was tested, and the survival was inactive: 96%. `CC(=O)N1CCc2c(sc3c2c(=O)n(-c2ccccc2)c(=O)n3CC(=O)Nc2ccccc2)C1` was tested, and the survival was inactive: 77%. With `COc1cc(CNC(=O)c2ccc3c(c2)N(C)C(=O)C2CCCCN32)cc(OC)c1OC` (stereo not drawn) the survival was inactive: 73%. With `COc1ccc2c(c1)N(C)/C(=c1/s/c(=C3/C(=O)N(c4ccccc4)N=C3C)n(C)c1=O)S2` the survival was inactive: 115%. `O=C(O)c1ccc(CNCc2ccc(Cl)cc2)s1` was tested, and the survival was inactive: 88%. `Cc1ccccc1NC(=O)Cn1c(SCC(=O)Nc2ccc(F)cc2)nc2ccccc21` was tested, and the survival was inactive: 76%. With `CCOC(=O)c1ccc(NC(=O)Cn2c(=O)n(-c3ccc(C)cc3)c(=O)c3c2cnn3C)cc1` the survival was inactive: 74%. `Cc1c(-c2nc(-c3ccc4c(c3)OCO4)no2)nnn1-c1ccc(Br)cc1F` was tested, and the survival was inactive: 75%. With `Cc1ccc2nc(Nc3cccc(Cl)c3C)c(-n3nc(C)cc3C)nc2c1` the survival was inactive: 131%. In the case of `CC(C)CN(C(=O)c1cccc(S(=O)(=O)N2CCCCC2)c1)C1CCS(=O)(=O)C1` (stereo not drawn), the survival is reported as inactive: 76%. `Cc1ccccc1NC(=S)N1CCC(NC(=O)C(C)(C)C)CC1` was tested, and the survival was inactive: 108%. In the case of `CC1(C)CC(CC(N)=O)(c2ccccc2)CCO1` (stereo not drawn), the survival is reported as inactive: 124%. In the case of `Cc1ccc(CNC(=O)Cc2c(C)c3cc4c(C)coc4cc3oc2=O)cc1`, the survival is reported as inactive: 92%. For `CCOC(=O)N1c2ccccc2Sc2ccccc21`, the survival was inactive: 95%. `N#CCOC(=O)c1cc(-c2ccc(C=C(C#N)C#N)o2)ccc1Cl` was tested, and the survival was inactive: 108%. With `O=C(COc1ccccc1Cl)OCc1cc(=O)n2nc(-c3cccs3)sc2n1` the survival was inactive: 87%. `CCOC(=O)c1ccc(N2CCN(c3cccc(OC)c3)CC2)c(NC(=O)Nc2ccc(OCC)cc2)c1` was tested, and the survival was active: -6%. `CCOC(=O)c1c(NC(=O)c2nc(SCC)ncc2Cl)sc(C(C)=O)c1C` was tested, and the survival was inactive: 92%. For `COc1ccc(C(=O)OCc2cc(=O)n3nc(-c4cccs4)sc3n2)cc1`, the survival was inactive: 75%. For `CCC(Cn1nnc2ccccc2c1=O)NC(=O)Nc1cccc(C)c1C` (stereo not drawn), the survival was inactive: 91%. `Cc1ccc(S(=O)(=O)Cc2ccc(C(=O)N3CCN(c4cccc(C)c4C)CC3)o2)cc1` was tested, and the survival was inactive: 131%. With `Cc1ccc(NC(=O)C2CCCN(c3nnc(C)c4c(C)n(-c5ccccc5)nc34)C2)c(Cl)c1` (stereo not drawn) the survival was inactive: 78%. With `O=[N+]([O-])c1cc(-c2nc(-c3ccccc3)no2)ccc1N1CCCCC1` the survival was inactive: 90%. In the case of `CCC(=O)N1CCc2cc(Br)cc(S(=O)(=O)CCC(=O)N3CCN(c4cccc(C(F)(F)F)c4)CC3)c21`, the survival is reported as inactive: 93%. For `CC1=C(C(=O)Nc2ccccc2)C(c2ccncc2)n2nc(SCc3ccccc3Cl)nc2N1` (stereo not drawn), the survival was inactive: 103%. For `COc1ccc(S(=O)(=O)Nc2ccccc2C(=O)NCc2ccco2)cc1OC`, the survival was inactive: 118%. `O=C(Cn1c(=O)n(Cc2ccco2)c(=O)c2ccccc21)Nc1ccc(Cl)cc1Cl` was tested, and the survival was inactive: 103%. For `O=C(Cn1c(=O)ccc2cc(S(=O)(=O)N3CCCC3)ccc21)NCc1ccc(Cl)cc1`, the survival was inactive: 75%. For `O=C(c1ccc(Cl)cc1)N1CCC(c2ccncc2)CC1`, the survival was inactive: 76%. With `CCN(CC)S(=O)(=O)c1ccc2nc(NC(=O)c3cccnc3)sc2c1` the survival was inactive: 66%. In the case of `COc1cc(-c2noc(-c3ccc(N4CCN(C)CC4)c([N+](=O)[O-])c3)n2)cc(OC)c1OC`, the survival is reported as inactive: 120%. In the case of `CC(C)(C)c1ccc(S(=O)(=O)NCc2ccc3c(c2)CCN3C(=O)c2ccccc2)cc1`, the survival is reported as inactive: 93%. For `O=C(NCCO)c1ccc2[nH]c3c(c2c1)CCCC3`, the survival was inactive: 102%.
